From paper PMC4336329 (PLoS ONE, 2015)
The whole screen tested about 310,000 compounds, of which about 14,000 (4.5%) showed an effect of 50% or more. Effects have a minus sign here. The list shows a part of the results.

The compounds below were run against human ether-à-go-go-related gene (hERG) potassium channel (human, UniProt Q12809) (assay: primary screen, population patch clamp on CHO cells stably expressing hERG).
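Also: peak tail current of the secondary pulse compared with the same well before compound.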

Chain of human ether-à-go-go-related gene (hERG) potassium channel (Q12809 whole entry, looked up): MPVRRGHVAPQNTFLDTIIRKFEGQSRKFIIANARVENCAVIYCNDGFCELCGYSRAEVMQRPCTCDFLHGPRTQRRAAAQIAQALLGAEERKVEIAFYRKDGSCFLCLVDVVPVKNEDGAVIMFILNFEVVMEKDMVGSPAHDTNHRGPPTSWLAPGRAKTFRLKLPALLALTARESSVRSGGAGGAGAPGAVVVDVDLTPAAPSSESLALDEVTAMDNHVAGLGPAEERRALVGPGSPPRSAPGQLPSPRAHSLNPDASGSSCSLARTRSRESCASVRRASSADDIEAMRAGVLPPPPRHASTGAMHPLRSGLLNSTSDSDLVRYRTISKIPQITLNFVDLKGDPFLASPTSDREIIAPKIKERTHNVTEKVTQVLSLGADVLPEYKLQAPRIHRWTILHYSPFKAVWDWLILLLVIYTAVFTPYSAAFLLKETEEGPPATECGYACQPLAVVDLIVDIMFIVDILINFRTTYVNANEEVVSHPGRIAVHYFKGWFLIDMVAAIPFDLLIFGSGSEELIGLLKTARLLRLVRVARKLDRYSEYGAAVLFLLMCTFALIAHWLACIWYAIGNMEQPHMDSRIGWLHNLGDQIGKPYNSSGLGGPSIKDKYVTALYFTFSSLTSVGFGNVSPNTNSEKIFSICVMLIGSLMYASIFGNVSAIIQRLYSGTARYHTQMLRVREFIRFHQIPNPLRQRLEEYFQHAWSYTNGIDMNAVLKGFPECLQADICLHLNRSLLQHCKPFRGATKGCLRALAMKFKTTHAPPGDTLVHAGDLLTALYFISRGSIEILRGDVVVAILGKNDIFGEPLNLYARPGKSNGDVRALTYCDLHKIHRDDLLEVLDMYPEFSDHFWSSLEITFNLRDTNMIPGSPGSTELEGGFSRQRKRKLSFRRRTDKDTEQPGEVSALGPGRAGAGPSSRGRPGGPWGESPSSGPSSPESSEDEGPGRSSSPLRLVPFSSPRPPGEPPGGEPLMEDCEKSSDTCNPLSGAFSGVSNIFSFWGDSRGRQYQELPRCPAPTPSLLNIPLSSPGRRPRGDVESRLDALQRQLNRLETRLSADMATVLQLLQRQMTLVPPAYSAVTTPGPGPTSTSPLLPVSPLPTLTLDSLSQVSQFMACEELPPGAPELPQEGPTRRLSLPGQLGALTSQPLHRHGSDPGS

Compound | hERG current change (%, negative = inhibition) at 10uM [%]
CC1CC(=O)N(c2ccc(NCc3ccccc3Cl)c([N+](=O)[O-])c2)C1=O (stereo not drawn) | 0.813
CC(CS(=O)(=O)c1ccccc1[N+](=O)[O-])N1CCOCC1 (stereo not drawn) | 5.68
CCn1c(CC(=O)Nc2ccc(F)cc2)nnc1SCC(=O)Nc1nncs1 | -4.43
Cc1cccc(NC(=O)Cn2nc(-c3cccs3)ccc2=O)c1C | 4.16
CCCCOc1ccc(C(=O)CCN2CCOCC2)cc1.Cl | -4.58
c1ccc(OCc2nc3ccccc3s2)cc1 | 2.17
Cc1c(CCN)ccc2c1[nH]c1ccccc12 | 0.0766
O=C1N(CCCCN2C(=O)C3(OCCO3)c3ccccc32)c2ccccc2C12OCCO2 | 6.9
O=C(NNC1=NS(=O)(=O)c2ccccc21)C1CC(=O)N(c2ccccc2)C1 (stereo not drawn) | 11.5
CC(=O)Nc1ccc(C(=S)NCCCO)cc1 | 11.6
C[C@H](NC(=O)c1ccccc1Cl)C(=O)NCc1cccs1 | 31.5
Cc1ccc(OCc2nn3c(-c4ccco4)nnc3s2)cc1 | -2.29
CN1CCN(C(=O)CN(c2cccc(Cl)c2)S(=O)(=O)c2ccccc2)CC1 | -26
O=C1C2CC=C(Cl)CC2C(=O)N1c1ncn[nH]1 (stereo not drawn) | 24
Cc1ccc(NC(=O)CSc2nnc(NC(=O)C3CC3)s2)cc1C | 7.31
COc1ccc(OC)c(NC(=O)c2cc(OC(C)=O)cc(C(=O)Nc3cc(OC)ccc3OC)c2)c1 | 11.5
C=CCOc1ccc2c(c1)c(=O)cc(C(=O)O)n2CC | 10.3
CCCCCCOc1ccc(C(=O)O)cc1 | 4.98
Cc1ccc(S(=O)(=O)NCCCCCC(=O)NC(C)(C)CO)cc1 | 13.7
O=C(N/N=C/c1cccs1)c1n[nH]c2c1CCCC2 | 23.1

Compound | hERG current change (%, negative = inhibition) at 10uM [%]
O=C(/C=C/c1ccccc1Cl)c1ccccc(=O)c1O | -1.72
Cc1ccc(NC(=O)CC2Oc3ccccc3NC2=O)c(C)c1 (stereo not drawn) | 10.7
COc1ccc(C(c2nnnn2C(C)(C)C)N2CCN(C)CC2)cc1OC (stereo not drawn) | -2.44
O=C(CC1NCCNC1=O)NC1Cc2ccccc2C1 (stereo not drawn) | 2.6
CCOC(=O)Nc1ccc2c(c1)N(C(=O)OC)c1ccccc1CC2 | -2.44
COC(=O)c1ccc(NC(C)=O)o1 | 2.44
Cc1ccc(CNC(=O)c2cc(S(=O)(=O)N3CCOCC3)cn2C)cc1 | -12.5
CCOC(=O)[C@H]1[C@H]2COc3ccc(Cl)cc3[C@@H]2N2C(=O)c3cc(C)ccc3NC(=O)[C@@]12C | 5.63
O=C(c1ccco1)N1CCN(C(=S)Nc2ccc(F)cc2)CC1 | -2.5
CC1CCCN(S(=O)(=O)c2ccc3c(c2)n(C)c(=O)c(=O)n3C)C1 (stereo not drawn) | 4.51
COCc1cc(C)nc(OCC(=O)N/N=C\c2cc(C)n(-c3cccc(C(F)(F)F)c3)c2C)c1C#N | 11.8
Cc1cc(-c2ccccc2)c2c3c(cn2n1)c(=O)n(C)c(=O)n3C | -6.82
NC(=O)c1ccc[n+](CCC[n+]2cccc(C(N)=O)c2)c1.[Br-] | 14.9
CN(C)S(=O)(=O)c1ccc(Cl)c(-c2nnc3n2CCCCC3)c1 | -12.4
CCOc1ccccc1NC(=O)c1nnn(CC(=O)Nc2cc(C)cc(C)c2)c1N | 15.7
O=C(Nc1cccc(C(=O)N2CCN(c3cccc(Cl)c3)CC2)c1)c1ccccc1 | 4.69
CCn1cc(C(=O)OC)c(=O)c2ccc(C)nc21 | 22.4
COc1ccc(/C=N/Nc2ccccn2)cc1O | -2.07
O=C(COC(=O)C1C2CC3OC(=O)C1C3C2)Nc1ccccc1 (stereo not drawn) | 12
CC(C)c1c(O)nc(SCc2ccccc2)[nH]c1=O | 11.5

Compound | hERG current change (%, negative = inhibition) at 10uM [%]
COn1c(=O)c(=O)n(OC)c2ccccc21 | -3.45
COc1ccc(-c2cc(=O)n(-c3ccc([N+](=O)[O-])cc3)[nH]2)cc1 | 16.8
Cc1ccc(S(=O)(=O)CCC(=O)N2CCN(c3ccc(Cl)cc3)CC2)cc1 | -23.8
O=C(Nc1ccc2ccccc2c1)c1cc(F)c(F)cc1Cl | 17.5
O=C(CSc1cccs1)Nc1ccc2ccccc2c1 | 4.71
O=c1c2sccc2nc(SCc2ccc([N+](=O)[O-])cc2)n1Cc1ccccn1 | -61.6
Cc1ccccc1Nc1nccc(N(C)C)c1C#N | 11.1
CCCc1cc(-c2n[nH]c(C)c2-c2ccc(C(=O)OCC)o2)c(O)cc1O | -0.34
Cc1ccc(-c2cc(O)cc3sc(=O)oc23)cc1C | 12.1
CC(O)[C@@H](C(=O)N1CCNCC1)n1cc(CCCCN)nn1.Cl (stereo partly drawn) | 14.3
Cc1onc(-c2ccccc2)c1C(N)=O | 3.15
Cc1ccnc2nc(C(=O)Nc3nc(-c4ccccn4)cs3)nn12 | 8.69
Nc1ccccc1N1CCN(C(=O)c2ccccc2)CC1 | 6.81
COC(=O)c1cc2ccc(OC)c(OC)c2c(=O)s1 | 18.6
Cc1ccc(C(=O)N2CCC(N3CCC(C(=O)N4CCOCC4)CC3)CC2)cc1C | -16.6
O=C(CCCC(=O)c1ccccc1)NCc1ccccc1 | 14
COCCN(C(=O)Nc1ccc(OC)cc1)c1nc2ccccc2s1 | 22.7
CCOc1cc(-c2noc(N)c2C(=O)OC)cc(OCC)c1OCC | -0.749
Cc1cc(C)c(NC(=O)/C=C\C(=O)O)c([N+](=O)[O-])c1 | -6.23
Cc1ccc(C)n1-n1cnc2scc(-c3cccs3)c2c1=O | -9.66
